Test results as given in the supplement of paper PMC10126150.
Values marked as one replicate rest on one cluster of the flow cell; about a third of the high ones do not repeat.
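Note: ATP exposure 15 min at 22 °C before imaging.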

Each sequence was assayed on ATP (assay: switch fluorescence ratio, 500 uM ATP over buffer (Cy3 cluster intensity, sum of 5 cycles each) (fold (ratio)); higher = stronger signal-on switching upon ATP binding; sequences stand for … in TCGTCGGCAGCGTCAGATGTGTATAAGAGACAGTTTTTTTTTTTTTTTTTTTTTTTTT…TC). Details: aptamer strand: ATP DNA aptamer (quencher-CACCTGGGGGAGTATTGCGGAGGAAGG + anchor), 100 nM annealed; ATP concentration: 500 uM; one replicate.
In short: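 Five buffer/ATP imaging cycles were run on Cy3-labelled switching-strand clusters on a modified Illumina MiSeq flow-cell, with NaOH stripping and re-annealing between cycles. In each cycle, clusters annealed to 100 nM quencher-labelled ATP aptamer were imaged in selection buffer, then after 15 min with 500 uM ATP at 22 °C. Per cluster, the fluorescence ratio is summed target-cycle over summed buffer-cycle Cy3 intensity, averaged per switch-domain sequence. Only clusters within 100-1000 RFU were kept.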
For ACGGACCCGT, the switch fluorescence ratio was 1.05. For ACGGACGAGG, the switch fluorescence ratio was 1.07. ACGGACGGGC showed a switch fluorescence ratio of 1.39. For ACGGACTAGG, the switch fluorescence ratio was 1.13. Work on ACGGAGCTGT yielded a switch fluorescence ratio of 2.61. ACGGAGTCGT was tested, and the switch fluorescence ratio was 1.02. Work on ACGGATATTT yielded a switch fluorescence ratio of 1.03. Work on ACGGATCCGA yielded a switch fluorescence ratio of 1.04. In the case of ACGGCATGCT, the switch fluorescence ratio is reported as 1.01. Sequence ACGGCCGTAT has a switch fluorescence ratio of 1.01. Work on ACGGCTGGGC yielded a switch fluorescence ratio of 1. ACGGCTTACA was tested, and the switch fluorescence ratio was 1.12. ACGGCTTCAT gave a switch fluorescence ratio of 1.01. Sequence ACGGGAGCTG has a switch fluorescence ratio of 0.97. Sequence ACGGGATACG has a switch fluorescence ratio of 1.09. ACGGGCATAG showed a switch fluorescence ratio of 1.06. For ACGGGCCCGT, the switch fluorescence ratio was 0.979. ACGGGCTTTG showed a switch fluorescence ratio of 1.07. ACGGGGCCCG gave a switch fluorescence ratio of 0.986. Sequence ACGGGGGGCC has a switch fluorescence ratio of 0.966. With ACGGGTGGAT the switch fluorescence ratio was 0.961. Work on ACGGTAAGTC yielded a switch fluorescence ratio of 1.11. Work on ACGGTAAGTT yielded a switch fluorescence ratio of 1.08. Sequence ACGGTACTCG has a switch fluorescence ratio of 1.24. For ACGGTAGGAT, the switch fluorescence ratio was 0.985. Work on ACGGTATAGG yielded a switch fluorescence ratio of 1.12. Sequence ACGGTCATCG has a switch fluorescence ratio of 0.971. Work on ACGGTCCGAG yielded a switch fluorescence ratio of 1.04. In the case of ACGGTGAGTA, the switch fluorescence ratio is reported as 0.994. With ACGGTTAATT the switch fluorescence ratio was 1.06. With ACGGTTAGAG the switch fluorescence ratio was 1.01. Work on ACGGTTGGGA yielded a switch fluorescence ratio of 1.08. ACGTAGAAGG gave a switch fluorescence ratio of 1.08. ACGTAGACTC gave a switch fluorescence ratio of 1.34. Sequence ACGTAGCGTG has a switch fluorescence ratio of 1.07. Sequence ACGTAGGAGA has a switch fluorescence ratio of 1.07. In the case of ACGTCAATTA, the switch fluorescence ratio is reported as 1.34. Work on ACGTCATATG yielded a switch fluorescence ratio of 1.12. ACGTCATCTC showed a switch fluorescence ratio of 1.17. Sequence ACGTCCACAT has a switch fluorescence ratio of 1.4. ACGTCCTAAT showed a switch fluorescence ratio of 1.02. Sequence ACGTCCTTCT has a switch fluorescence ratio of 0.991. In the case of ACGTCGGATG, the switch fluorescence ratio is reported as 0.992. In the case of ACGTCTGAGC, the switch fluorescence ratio is reported as 1.02. ACGTCTTTCG was tested, and the switch fluorescence ratio was 0.958. With ACGTGACGGA the switch fluorescence ratio was 1.28. ACGTGGCAGG showed a switch fluorescence ratio of 1.03. In the case of ACGTGGGATT, the switch fluorescence ratio is reported as 0.996. With ACGTGGGCGC the switch fluorescence ratio was 0.994. In the case of ACGTGGTAAC, the switch fluorescence ratio is reported as 1.04. For ACGTGGTACC, the switch fluorescence ratio was 1.04. With ACGTGGTTGG the switch fluorescence ratio was 1.04. Sequence ACGTGTAAAC has a switch fluorescence ratio of 1.03. For ACGTTAGTTA, the switch fluorescence ratio was 0.989. For ACGTTCTAC, the switch fluorescence ratio was 1.26. Work on ACGTTTCGGC yielded a switch fluorescence ratio of 1. ACGTTTTCGC gave a switch fluorescence ratio of 1.02. For ACGTTTTGCG, the switch fluorescence ratio was 0.98. ACTAACAATA showed a switch fluorescence ratio of 1.11. ACTAACGAGA showed a switch fluorescence ratio of 1.24. With ACTAAGAATA the switch fluorescence ratio was 1.04. ACTAATCTG gave a switch fluorescence ratio of 1.09. For ACTACATACT, the switch fluorescence ratio was 1.51. ACTACGATTG was tested, and the switch fluorescence ratio was 1.04. Work on ACTAGCACTT yielded a switch fluorescence ratio of 1.15. In the case of ACTAGCGCGA, the switch fluorescence ratio is reported as 1.29. Work on ACTAGCTAGT yielded a switch fluorescence ratio of 0.988. ACTAGCTGAC gave a switch fluorescence ratio of 1.59. For ACTAGGAAGG, the switch fluorescence ratio was 0.99. ACTATACTAT was tested, and the switch fluorescence ratio was 1.29. ACTATAGGTC gave a switch fluorescence ratio of 1.05. Sequence ACTATATCAT has a switch fluorescence ratio of 1.11. Work on ACTATGTATG yielded a switch fluorescence ratio of 0.945. For ACTATTGAGC, the switch fluorescence ratio was 1.05. ACTATTTAGC showed a switch fluorescence ratio of 1.01. ACTCACAAGA showed a switch fluorescence ratio of 1.31. Work on ACTCAGCCCA yielded a switch fluorescence ratio of 1.23. In the case of ACTCAGTCCT, the switch fluorescence ratio is reported as 1.09. Work on ACTCATCGTT yielded a switch fluorescence ratio of 1.06. ACTCCACTGT gave a switch fluorescence ratio of 4.24. ACTCCCCTGA was tested, and the switch fluorescence ratio was 2.1. Sequence ACTCCGTTCA has a switch fluorescence ratio of 2.05. With ACTCCTCAGC the switch fluorescence ratio was 1.93. In the case of ACTCGAAAGG, the switch fluorescence ratio is reported as 1.07. ACTCGCTTGG showed a switch fluorescence ratio of 1.08. With ACTCGGTCAC the switch fluorescence ratio was 1.24. For ACTCGTACCG, the switch fluorescence ratio was 1.04. With ACTCGTAGAT the switch fluorescence ratio was 0.987. Sequence ACTCTACGGG has a switch fluorescence ratio of 1.37. With ACTCTCTTTG the switch fluorescence ratio was 1.02. For ACTCTGAATG, the switch fluorescence ratio was 1.08. In the case of ACTCTGCTGA, the switch fluorescence ratio is reported as 2.55. In the case of ACTCTGGCAC, the switch fluorescence ratio is reported as 2.9. For ACTCTTGTGA, the switch fluorescence ratio was 1.02. In the case of ACTCTTTTG, the switch fluorescence ratio is reported as 1.03. For ACTGAAAACT, the switch fluorescence ratio was 1. In the case of ACTGAAGAGC, the switch fluorescence ratio is reported as 0.884. Work on ACTGAAGTCA yielded a switch fluorescence ratio of 1. In the case of ACTGACTGCT, the switch fluorescence ratio is reported as 1.11. For ACTGAGAGGG, the switch fluorescence ratio was 0.982. With ACTGAGGTA the switch fluorescence ratio was 1.06. For ACTGAGTACG, the switch fluorescence ratio was 1.18. For ACTGAGTCTG, the switch fluorescence ratio was 1.22. In the case of ACTGATTA, the switch fluorescence ratio is reported as 1.03. For ACTGCAGGTG, the switch fluorescence ratio was 2.47. For ACTGCAGTGT, the switch fluorescence ratio was 0.983. With ACTGCCTCTC the switch fluorescence ratio was 1.13. With ACTGCGGGTG the switch fluorescence ratio was 1.26. With ACTGGAACTT the switch fluorescence ratio was 1.08. In the case of ACTGGCAAGC, the switch fluorescence ratio is reported as 1.66. Sequence ACTGGCTGCG has a switch fluorescence ratio of 0.982. For ACTGGGAGAG, the switch fluorescence ratio was 1.01. ACTGGGCTC showed a switch fluorescence ratio of 0.975. With ACTGGGCTTG the switch fluorescence ratio was 1.04. In the case of ACTGGGGTAA, the switch fluorescence ratio is reported as 1. With ACTGGGTTTA the switch fluorescence ratio was 0.976. ACTGGTAAGA showed a switch fluorescence ratio of 0.994. Work on ACTGGTGGCG yielded a switch fluorescence ratio of 0.998. For ACTGGTTGCC, the switch fluorescence ratio was 0.987. With ACTGTAACCT the switch fluorescence ratio was 1.65. ACTGTATAC gave a switch fluorescence ratio of 2. Work on ACTGTCATAA yielded a switch fluorescence ratio of 1.09. ACTGTCATCG gave a switch fluorescence ratio of 1.09. For ACTGTCCAGC, the switch fluorescence ratio was 1.02. Work on ACTGTCGGAC yielded a switch fluorescence ratio of 1.02. For ACTGTGAAT, the switch fluorescence ratio was 1.01. Sequence ACTGTTAAGC has a switch fluorescence ratio of 1.04. For ACTGTTGTTC, the switch fluorescence ratio was 0.972. Work on ACTTAAAGGG yielded a switch fluorescence ratio of 1.02. For ACTTAAGCC, the switch fluorescence ratio was 1.01. Work on ACTTAATAAA yielded a switch fluorescence ratio of 0.998. ACTTACATAC gave a switch fluorescence ratio of 1.55. ACTTACATTA was tested, and the switch fluorescence ratio was 1.26. ACTTACCGGG gave a switch fluorescence ratio of 1.19. ACTTACGACT gave a switch fluorescence ratio of 1.35. With ACTTACGGCT the switch fluorescence ratio was 1.22. In the case of ACTTAGACTG, the switch fluorescence ratio is reported as 0.935. With ACTTAGAGAT the switch fluorescence ratio was 1.01. ACTTAGTGTC showed a switch fluorescence ratio of 1.03. Work on ACTTATGCAC yielded a switch fluorescence ratio of 1.13. Sequence ACTTATTGAT has a switch fluorescence ratio of 0.96. Work on ACTTCACAGG yielded a switch fluorescence ratio of 1.86. With ACTTCACCTT the switch fluorescence ratio was 1.33. With ACTTCCATCA the switch fluorescence ratio was 1.05. ACTTCCGGTC showed a switch fluorescence ratio of 1.26. ACTTCCTAGT showed a switch fluorescence ratio of 1.09. ACTTCGTTTT was tested, and the switch fluorescence ratio was 1.03. ACTTCTATA gave a switch fluorescence ratio of 1.08. ACTTCTCATT gave a switch fluorescence ratio of 1.08. Work on ACTTGATTCT yielded a switch fluorescence ratio of 1. ACTTGCGAAT gave a switch fluorescence ratio of 1.01. Sequence ACTTGCGACG has a switch fluorescence ratio of 1.27. ACTTGCTCCG showed a switch fluorescence ratio of 4.54. With ACTTGGCATA the switch fluorescence ratio was 1.25. ACTTGGCTAC gave a switch fluorescence ratio of 2.64. Work on ACTTGGTC yielded a switch fluorescence ratio of 1.06. ACTTGTCCAA showed a switch fluorescence ratio of 1. For ACTTGTCGCT, the switch fluorescence ratio was 1.03. ACTTTCACGT was tested, and the switch fluorescence ratio was 1.21. ACTTTCGGA gave a switch fluorescence ratio of 1.04. ACTTTCTATT showed a switch fluorescence ratio of 1.01. Work on ACTTTGACCA yielded a switch fluorescence ratio of 1.12. ACTTTGAGA was tested, and the switch fluorescence ratio was 1.04. In the case of ACTTTGGTAC, the switch fluorescence ratio is reported as 1.06. Sequence ACTTTGTTAC has a switch fluorescence ratio of 1.03. ACTTTTACTA was tested, and the switch fluorescence ratio was 1.12. ACTTTTGCAT showed a switch fluorescence ratio of 1. Sequence ACTTTTGTTG has a switch fluorescence ratio of 0.947. For AGAAAAAGTA, the switch fluorescence ratio was 1.03. With AGAAAACGGT the switch fluorescence ratio was 0.946. AGAAAAGTAT was tested, and the switch fluorescence ratio was 0.98. For AGAAACTTAC, the switch fluorescence ratio was 1.51. AGAAAGAACA was tested, and the switch fluorescence ratio was 1.04. For AGAAAGATAT, the switch fluorescence ratio was 0.979. With AGAAAGTGCT the switch fluorescence ratio was 0.953. AGAAATGGTT gave a switch fluorescence ratio of 1.34. For AGAACGACAC, the switch fluorescence ratio was 1.92. With AGAACGGGAC the switch fluorescence ratio was 1.21. For AGAACGGGGG, the switch fluorescence ratio was 0.89. Work on AGAACGGTT yielded a switch fluorescence ratio of 1.04. AGAAGAAATT gave a switch fluorescence ratio of 1.01. In the case of AGAAGGAAGT, the switch fluorescence ratio is reported as 1.01. In the case of AGAAGGAGGG, the switch fluorescence ratio is reported as 0.989. Work on AGAAGGATTT yielded a switch fluorescence ratio of 1.02. Sequence AGAAGGCGAG has a switch fluorescence ratio of 1.05. AGAAGGCGAT gave a switch fluorescence ratio of 0.982. For AGAAGGCTAA, the switch fluorescence ratio was 0.993. With AGAAGGGT the switch fluorescence ratio was 0.975. Sequence AGAAGGTCGA has a switch fluorescence ratio of 1.02. Work on AGAAGTGGGA yielded a switch fluorescence ratio of 1.04. AGAAGTTAGC showed a switch fluorescence ratio of 0.998. AGAATAAGAT was tested, and the switch fluorescence ratio was 0.984. AGAATACTTT was tested, and the switch fluorescence ratio was 1.03. Sequence AGAATAGCCT has a switch fluorescence ratio of 1.07. In the case of AGAATATGGC, the switch fluorescence ratio is reported as 1.03. AGAATCATGT was tested, and the switch fluorescence ratio was 0.994. AGAATGATTC showed a switch fluorescence ratio of 1.01. In the case of AGAATGCGCG, the switch fluorescence ratio is reported as 1.06. AGAATGGACT gave a switch fluorescence ratio of 0.996. For AGAATGTAAA, the switch fluorescence ratio was 1.03.
